Data taken from PubChem BioAssay AID540317 (National Center for Advancing Translational Sciences (NCATS), 2011).
Screen size: about 390,000 compounds; about 2,200 (0.56%) were called active. This list was built around the results that the source calls inconclusive (neither active nor inactive); the mix of calls is not that of the screen. The call rests on the fitted dose curve; in most records, active means well fitted inhibition curve with a large enough effect; inconclusive means small, poorly fitted or top-dose-only effect; inactive means no such curve, though single readings can be large or run the other way. Potencies beside an inconclusive call are fits to weak or partial responses and may not hold up.

target: Chromobox protein homolog 1 (Homo sapiens) (UniProt P83916); test: HTS for Inhibitors of HP1-beta Chromodomain Interactions with Methylated Histone Tails; details: AlphaScreen HP1-beta / biotin-H3K9me3 peptide binding; series mostly up to 114 µM; further: nearly all actives have a fitted effect of over 70% in size
UniProt P83916, sequence (P83916 whole entry, looked up): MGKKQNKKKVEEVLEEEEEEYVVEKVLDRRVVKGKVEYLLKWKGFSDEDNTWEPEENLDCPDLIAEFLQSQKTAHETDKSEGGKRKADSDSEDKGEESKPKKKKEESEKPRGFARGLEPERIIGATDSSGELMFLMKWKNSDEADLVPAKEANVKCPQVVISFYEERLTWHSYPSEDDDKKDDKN
Outline: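 Compound inhibition of the preformed complex between 50 nM HP1-beta and 50 nM biotinylated H3K9me3 peptide was read by AlphaScreen. Buffer was PBS pH 7.4 with 0.01% Tween-20. Incubations ran 30 min at room temperature, with 10 ug/mL donor/acceptor beads.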
Potency means the concentration at half of the fitted maximal effect; tags describe the fitted curve by direction and shape.

Row | SMILES | Potency
1 | O=C(O)c1ccc2c(ccc3nn(-c4ccc(/C=C/c5ccc(-n6nc7ccc8cc(C(=O)O)ccc8c7n6)cc5[S+](=O)([O-])[O-])c([S+](=O)([O-])[O-])c4)nc32)c1 | inconclusive: 17.8 µM [inhibitor, full curve, poor fit]
2 | COc1ccc(N2CCN(CC(=O)Nc3ccccc3SC)CC2)cc1 | inconclusive: 35.5 µM [inhibitor, partial curve]
3 | Oc1ccc2ccccc2c1/C=N/c1nc2c(s1)CCCC2 | inconclusive: 56.2 µM [inhibitor, single point]
4 | COc1ccc([C@H]2/C=C\CN(Cc3ccc(N(C)C)cc3)[C@@H](C)C(=O)N2Cc2ccc(F)cc2)cc1 | inconclusive: 17.8 µM [inhibitor, full curve]
5 | Cc1cc(=O)n(CC(=O)N2CCN(c3ccc(F)cc3)CC2)c2c1c(C)nn2C | inactive
6 | Cc1ccc(/C=C/c2nc3ccccc3[nH]2)o1 | inconclusive: 25.1 µM [inhibitor, partial curve, poor fit]
7 | Nc1ccc(C(=O)O)c(O)c1 | inactive
8 | CC1CCN(C2=C(NS(=O)(=O)c3ccccc3)C(=O)c3ccccc3C2=O)CC1 | active: 14.1 µM
9 | COc1ccc(-c2ccc(OC)cc2)cc1 | inactive
10 | CSc1ccccc1C(=O)NC1CCCCCC1 | inactive
11 | CN(C)CCCNC(=O)C[C@H]1C[C@H](C(=O)N2CCCCC2)[C@@]2(CCc3ccccc3)c3[nH]c4cc(-c5ccco5)ccc4c3CCN2C1=O | inconclusive: 50.1 µM [inhibitor, partial curve]
12 | COc1ccc(Br)cc1CNc1ccccc1 | inconclusive: 14.1 µM [inhibitor, partial curve, poor fit]
13 | CCc1ccc2c(c1)NC(c1ccc(OC)cc1)=NC(c1ccncc1)=N2 | inconclusive: 28.2 µM [inhibitor, partial curve, poor fit]
14 | O=C(O)c1ccc(NC2=C/C(=N/S(=O)(=O)c3ccccc3)c3ccccc3C2=O)cc1 | inconclusive: 31.6 µM [inhibitor, single point]
15 | CCC(CC)N1CCN(S(=O)(=O)c2ccc(OC)cc2)CC1 | inconclusive: 56.2 µM [inhibitor, single point]
16 | Cc1ccc(Cn2c(=S)[nH]c3ccc(N4CCOCC4)cc3c2=O)o1 | inconclusive: 14.1 µM [inhibitor, partial curve, poor fit]
17 | COc1ccc(/C=N/n2cnn(Cc3ccccc3Cl)c2=S)cc1OC | inconclusive: 35.5 µM [inhibitor, partial curve]
18 | Oc1cccc(NC(=S)N=Nc2c(O)[nH]c3ccc(Br)cc23)c1 | inconclusive: 17.8 µM [inhibitor, full curve]
